PMC4336329 (PLoS ONE, 2015)
In all, about 310,000 compounds went through this assay and about 2,200 (0.71%) showed an effect of 50% or more. Effects have a minus sign here. This is one part of the list.

molecular target: human ether-à-go-go-related gene (hERG) potassium channel (human, UniProt Q12809); assay: primary screen, population patch clamp on CHO cells stably expressing hERG
Sequence (Q12809 whole entry, looked up): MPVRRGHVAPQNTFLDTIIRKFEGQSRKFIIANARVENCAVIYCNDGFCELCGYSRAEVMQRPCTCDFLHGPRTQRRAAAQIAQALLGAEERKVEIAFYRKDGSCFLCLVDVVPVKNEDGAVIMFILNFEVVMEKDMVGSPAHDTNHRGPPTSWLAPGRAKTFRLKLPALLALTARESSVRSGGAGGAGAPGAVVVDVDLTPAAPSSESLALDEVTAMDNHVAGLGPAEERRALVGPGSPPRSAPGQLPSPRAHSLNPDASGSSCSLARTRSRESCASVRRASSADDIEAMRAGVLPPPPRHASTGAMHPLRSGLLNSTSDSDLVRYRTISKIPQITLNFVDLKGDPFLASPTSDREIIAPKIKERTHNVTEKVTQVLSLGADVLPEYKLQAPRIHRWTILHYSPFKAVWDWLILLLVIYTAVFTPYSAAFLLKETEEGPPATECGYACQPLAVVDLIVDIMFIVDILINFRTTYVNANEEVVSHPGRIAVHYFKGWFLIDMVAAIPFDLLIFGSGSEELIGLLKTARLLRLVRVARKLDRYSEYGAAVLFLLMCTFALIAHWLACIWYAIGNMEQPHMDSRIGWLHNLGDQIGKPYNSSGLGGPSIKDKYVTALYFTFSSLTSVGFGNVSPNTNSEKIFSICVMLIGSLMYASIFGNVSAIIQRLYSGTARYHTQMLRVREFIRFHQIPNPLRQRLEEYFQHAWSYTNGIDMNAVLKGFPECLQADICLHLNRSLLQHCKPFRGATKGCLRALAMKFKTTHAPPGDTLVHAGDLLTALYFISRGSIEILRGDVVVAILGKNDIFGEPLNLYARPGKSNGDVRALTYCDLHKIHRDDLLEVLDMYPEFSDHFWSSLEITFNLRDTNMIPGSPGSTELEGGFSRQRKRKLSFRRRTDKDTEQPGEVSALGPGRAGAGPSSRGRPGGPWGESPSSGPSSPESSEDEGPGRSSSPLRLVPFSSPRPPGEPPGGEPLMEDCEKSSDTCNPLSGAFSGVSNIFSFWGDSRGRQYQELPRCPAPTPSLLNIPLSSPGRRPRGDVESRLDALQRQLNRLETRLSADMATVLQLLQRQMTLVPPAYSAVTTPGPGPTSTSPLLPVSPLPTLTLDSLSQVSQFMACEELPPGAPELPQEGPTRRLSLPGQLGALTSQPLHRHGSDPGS

Compound	hERG current change (%, negative = inhibition) at 1uM [%]
Clc1ccc(-n2c(SCc3nc4ccccc4[nH]3)nnc2-c2ccncc2)cc1	-6.16
COC(=O)CC1C(=O)NCCN1C(=O)CSc1nc2ccc([N+](=O)[O-])cc2s1 (stereo not shown)	6.91
CCOC(=O)C1C(C(=O)Nc2cccc(C(F)(F)F)c2)C1C(=O)NC(C)C (stereo not shown)	11.5
COc1ccc(/C=C(\NC(=O)c2cccs2)C(=O)NCc2ccco2)cc1OC	9.68
Cc1cccc(-c2cc3nc(C)cc(C)n3n2)c1	7.14
CCC1(C)Cc2c(sc3[nH]c(=O)[nH]c(=O)c23)CS1 (stereo not shown)	7.13
Cc1nc2ccc(C(=O)O)cc2c2c1CC(C)S2 (stereo not shown)	-11.5
O=C(CSc1nc2ccccc2o1)Nc1nccs1	0.494
O=C(O)C(=O)O.c1ccc(-c2ccccc2OCCCN2CCOCC2)cc1	5.13
COc1ccccc1NC(=O)Cc1nnc(SCC(=O)NC2=NCCS2)n1C	12.5
CN(CC(=O)Nc1ccc(Cl)cc1)c1ccc(S(=O)(=O)N2CCCCC2)cc1[N+](=O)[O-]	-3.72
NC(=O)C1CCN(C(=O)CSc2nc3ccccc3[nH]2)CC1	6.3
COc1ccc(C(=O)N[C@H]2COC(C)(C)O[C@H]2c2ccccc2)cc1	1.99
CC1(C)CC(=O)C(C=NCCN2CCNC2=O)=C(O)C1	19.4
O=C(COc1cccc(F)c1)N1c2ccccc2Sc2ccccc21	11.9
CC(C)(C)n1nc2c(c1NC(=O)c1ccc(F)c(F)c1)CS(=O)(=O)C2	15.2
COc1ccc(C(=O)Nc2cc3c(cc2C(=O)O)OCCCO3)c(OC)c1	-10.4
Clc1cccc(Cl)c1Cn1cnc(=NCc2ccco2)c2[nH]cnc21	-5.86
CCCC(=O)Nc1ccc(C(=O)n2nnc3ccccc32)cc1	23.4
O=C(NCc1ccccc1Cl)c1ccc(Cn2cc(C(F)(F)F)ccc2=O)cc1	5.6
Cc1ccc(NC(=O)c2ccc(-c3nn(C)c(=O)c4ccccc34)cc2)cc1	-2.18
CCc1nc2ccccc2c(C(=O)OCC(=O)NCc2ccc3c(c2)OCO3)c1C	4.96

Compound	hERG current change (%, negative = inhibition) at 1uM [%]
CC(C)NC(=O)c1ccc(-n2c(=S)[nH]c3ccccc3c2=O)cc1	11.2
O=C(CCN1C(=O)COc2ccccc21)NCc1cccnc1	8.98
COc1ccc(OC)c(-c2cc(C(=O)NCCCn3ccnc3)no2)c1	7.77
CCOc1ccccc1CNC(=O)CCNS(=O)(=O)c1ccc2[nH]c(=O)oc2c1	1.86
COc1ccc(C(=O)Nc2ccc(N3CCN(C)CC3)cc2)cc1[N+](=O)[O-]	-0.837
O=C(COCc1nc2ccccc2c(=O)[nH]1)NC1CCCC1	7.8
COc1cc(OC)cc(-c2nc(-c3ccccc3OC)no2)c1	-3.34
COc1cccc(CNC(=O)CCN2C(=S)NC(C)(C)CC2C)c1 (stereo not shown)	4.5
CC(C)OC12Oc3ccccc3C=C1N1CCC2CC1 (stereo not shown)	9.88
CCCOc1ccc(C(=O)NCC(c2cccs2)N(C)C)cc1OC (stereo not shown)	-11.4
CC(OC(=O)/C=C/c1cccc(C(F)(F)F)c1)C(=O)NC1CCCCC1C (stereo not shown)	15
CCN(CC)CCN(Cc1cc2cc3c(cc2[nH]c1=O)OCCO3)C(=S)NCC1CCCO1 (stereo not shown)	11.6
C=CCn1c(C)cc(C(=O)CSc2nnc(Cc3ccccc3)o2)c1C	14.6
Cc1ccc2oc(=O)c3cc(C(=O)NCCCN4CCCCCC4)sc3c2c1	1.74
O=C(NC(=S)NCCc1ccccc1)C1CCCCC1	8.1
Cc1nn(-c2ccc(F)cc2)c(C)c1CN1CCN(CCc2ccccc2)C(CCO)C1 (stereo not shown)	-35.1
O=C(NCc1ccc2c(c1)OCO2)c1ccc(S(=O)(=O)N2CCOCC2)cc1	11.9
Cc1nc(-c2ccccc2)sc1-c1ccnn1C	9.15
CC(C)CC(=O)NC(=S)Nc1ccccn1	15.9
Cc1ccc(S(=O)(=O)Nc2c(C)n(C)n(-c3ccccc3)c2=O)cc1C(=O)OC(C)C(=O)N(C)c1ccccc1 (stereo not shown)	9.72
Cc1cccc(CN2CCC(n3nccc3NC(=O)CCCc3ccccc3)CC2)n1	-8
CC1(C)C2CCC1(CS(=O)(=O)Nc1ccc(S(=O)(=O)N3CCCCC3)cc1)C(=O)C2 (stereo not shown)	2.98

Compound	hERG current change (%, negative = inhibition) at 1uM [%]
NC(=O)c1sc2cc(C(F)(F)F)cnc2c1-c1ccccc1	16.4
CCCCc1ccc(Nc2ncccc2C#N)cc1	11.8
O=C(Nc1nnc(COc2ccccc2F)s1)Nc1ccccc1F	15.3
CC(=O)C(Cc1ccc(Cl)nc1)(Cc1ccc(Cl)nc1)C(C)=O	7.21
COc1ccc(/C=N/NC(=O)C(O)(c2ccccc2)c2ccccc2)cc1OC	8.47
OC(COc1ccc(F)cc1Cl)CN1CCC(Cc2ccccc2)CC1 (stereo not shown)	-81.4
CCOP(=O)(OCC)C(NC(=O)c1cccc2ccccc12)C(Cl)(Cl)Cl (stereo not shown)	2.91
CC(=O)NCCOc1ccc(C(=O)O)cc1	6.2
CN(C)c1ccc(/C=N/NC(=O)c2ccn(C)n2)cc1	9.92
O=C(CCc1ccccc1)Oc1ccccc1[N+](=O)[O-]	13.8
CN1C(=S)SC(N(O)C(=O)Nc2cccc3ccccc23)C1(C)C (stereo not shown)	8.43
Cc1ccc(-n2c(Cc3cccs3)nnc2SCC(=O)Nc2ccc(F)c(F)c2)cc1	1.22
CC1(C)CC(NC(=O)Cc2ccccc2[N+](=O)[O-])CC(C)(C)N1	0.436
C=C(C)c1cccc(C(C)(C)NC(=O)NCCN(CC)CC)c1	3.08
COc1ccc2oc3cc(C)[n+]([O-])c(-c4ccc(Br)cc4)c3c2c1	4.46
Cc1cccc(/C=N/NC(=O)c2ccc(NC(=O)c3cccc(Cl)c3)cc2)n1	10.4
COc1ccc(OC)c(C(C[N+](=O)[O-])c2c(C)cc3ccccn23)c1 (stereo not shown)	10.5
Cc1ccc(C(C)C)c(OCC(O)CN2CC(C)OC(C)C2)c1.Cl (stereo not shown)	1.47
COc1ccc2[nH]c(=O)c(CN(Cc3nnnn3CCc3ccccc3)CC3CCCO3)cc2c1 (stereo not shown)	-10.9
CN(C)CCCOC(=O)c1ccccc1Cl.Cl	6.21
O=C(CSc1nc2[nH]ncc2c(=O)n1-c1ccccc1)NCc1cccs1	12.3
CCCc1c2ccccc2nc2ccccc12	-1.03

Compound	hERG current change (%, negative = inhibition) at 1uM [%]
C=C(C)c1cccc(C(C)(C)NC(=O)Nc2ccc(OC)cc2)c1	3.56
COc1cc(OC)cc(-n2nnnc2SCC(=O)Nc2nc3c(s2)CCCC3)c1	1.53
O=C(Nc1nc(-c2cccnc2)cs1)c1ccccc1Cl	5.49
COc1ccc(/C=N/n2c(C)nc3sc(C)c(C)c3c2=O)cc1	16.9
COc1ccc(N=C2SC(C(N)=O)CC(=O)N2CCc2ccc(OC)c(OC)c2)cc1 (stereo not shown)	9.57
OCC#CCSc1nnc(-c2ccncc2)o1	4.32
COc1ccc(CCNC(=O)CN(c2ccc(C)cc2)S(=O)(=O)c2c(C)noc2C)cc1OC	8.22
CCOC(=O)/C(C#N)=C(\O)c1ccc(NC(=O)c2ccc([N+](=O)[O-])cc2)cc1	12.5
COc1ccccc1/C=C1/SC(=S)N(CCC(=O)Nc2cccnc2)C1=O	7.75
CCCCN(CCCC)CCNC(=O)CSCc1ccc(C)cc1.O=C(O)C(=O)O	-16
O=C(Nc1ccccc1Cl)c1csc(-c2cccnc2)n1	8.38
COc1ccc(F)cc1C(=O)COC(=O)c1n[nH]c(=O)c2ccccc12	0.151
CSc1nc2ccccc2cc1/C=C(\C#N)c1cccc(Cl)c1	17.3
OCCNc1cc(Cl)ncn1	11.2
CCCCCCSc1ccc(-c2nc3ccc(C)cn3c2NC2CCCCC2)cc1.O=C(O)C(F)(F)F	11.6
COc1ccccc1C(=O)NNC(=O)C(=O)NCc1ccccc1	7.74
Cc1ccc(C)c(S(=O)(=O)c2c(N)n(/N=C/c3ccco3)c3nc4ccccc4nc23)c1	11
CSC1=C(C#N)C(c2ccccc2)C(C(C)=O)=C(C)N1 (stereo not shown)	10.6
COc1ccc(C2C(C(=O)c3cccs3)=C(O)C(=O)N2c2cccc(C)n2)cc1OC (stereo not shown)	-0.155
Cc1cccc(C)c1OCC(=O)N/N=C/c1cc2c(cc1[N+](=O)[O-])OCO2	8.05
COc1ccc(NC(=O)c2ccc(-c3nn(C)c(=O)c4ccccc34)cc2)cc1C(N)=O	9.21
COc1ccc(S(=O)(=O)N2CC(=O)Nc3ccccc32)cc1C	14.3
